Measurements taken from PubChem BioAssay AID1768 (National Center for Advancing Translational Sciences (NCATS), 2009).
The campaign covered roughly 270,000 compounds. About 620 (0.23%) were called active. Inconclusive results, whose numbers are uncertain, are shown with a selection of clear calls. The call rests on the fitted dose curve; in most records, active means well fitted inhibition curve with a large enough effect in the polarisation, with a control signal flat (not every such curve was filed as active); inconclusive means small, poorly fitted or top-dose-only effect, or effect the other way, or a change in a side signal; inactive means no such curve, though single readings can be large or run the other way; the % refers to the polarisation. A potency beside an inconclusive call is a rough fit, not a confirmed value. “Side channel” marks fits to a control or component signal instead of the main read-out.

Molecular target: Menin (Homo sapiens) (UniProt O00255)
Chain of UniProt O00255 (O00255 whole entry, looked up): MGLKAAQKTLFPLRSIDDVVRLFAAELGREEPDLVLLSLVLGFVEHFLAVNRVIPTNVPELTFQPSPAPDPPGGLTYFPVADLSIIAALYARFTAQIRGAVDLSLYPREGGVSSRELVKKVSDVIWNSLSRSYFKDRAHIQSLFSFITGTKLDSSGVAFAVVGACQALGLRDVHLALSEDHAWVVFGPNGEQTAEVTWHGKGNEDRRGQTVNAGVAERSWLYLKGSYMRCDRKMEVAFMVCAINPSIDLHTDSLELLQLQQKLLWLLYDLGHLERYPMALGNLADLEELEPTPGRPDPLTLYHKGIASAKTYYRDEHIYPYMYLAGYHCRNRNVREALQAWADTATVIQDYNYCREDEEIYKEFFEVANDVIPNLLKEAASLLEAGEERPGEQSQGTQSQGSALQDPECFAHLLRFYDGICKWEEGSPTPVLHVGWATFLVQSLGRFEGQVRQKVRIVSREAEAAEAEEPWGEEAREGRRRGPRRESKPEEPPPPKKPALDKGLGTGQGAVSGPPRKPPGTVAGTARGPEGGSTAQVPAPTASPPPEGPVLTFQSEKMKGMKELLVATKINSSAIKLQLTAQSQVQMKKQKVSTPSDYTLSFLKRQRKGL
Assay: qHTS Assay for Inhibitors Targeting the Menin-MLL Interaction in MLL Related Leukemias: Competition With Texas Red Labeled MLL-derived Mutant Peptide; on FP activity change, negative = inhibition: % of control where 0% means no effect
Details: fluorescence polarization; FP activity change, negative = inhibition: at 61.6 µM (top of the series)
Potency means the concentration at half of the fitted maximal effect; tags describe the fitted curve by direction and shape or compound fluorescence and quenching.

Potency, inconclusive:
CC(C)c1c(C(=O)N/N=C/c2ccc(OCc3ccccc3)cc2)nnn1-c1nonc1N 4.47 µM [quencher, side channel, single point]
CC[C@H]1C(c2ccccc2)=NN(c2ccccc2)[C@@H]1CO 20 µM [quencher, side channel, partial curve]
O=C1/C(=C\c2cccc([N+](=O)[O-])c2O)SC(=S)N1Cc1ccccc1 28.2 µM [fluorescent, side channel, partial curve]
Cc1[nH]nc(-c2ccc(OCc3cnn(-c4ccccc4)c3)cc2O)c1Oc1ccc(Cl)cc1 3.16 µM [quencher, side channel, single point]
Cc1cccc(NC(=S)/N=C(\N)Nc2nc(C)c3ccc(C)cc3n2)c1 10 µM [inhibitor, partial curve]
COc1ccc(/C=C2\SC(=S)N(CCC(=O)Nc3cccc(O)c3)C2=O)cc1 14.1 µM [quencher, side channel, partial curve]
O=C(CSc1ccccc1C(=O)O)c1ccc([N+](=O)[O-])cc1 25.1 µM [quencher, side channel, single point]
NS(=O)(=O)c1ccc(Nc2c([N+](=O)[O-])cncc2[N+](=O)[O-])cc1 39.8 µM [inhibitor, single point]
CCCCC[n+]1ccn(C2=C([O-])c3ccccc3C(=O)/C2=N\S(=O)(=O)c2ccccc2)c1 11.2 µM [inhibitor, partial curve]
CCOC(=O)C1CCN(Cc2cc(C(C)C)c(O)c(C(C)C)c2)CC1 35.5 µM [inhibitor, single point]
CCOc1ccc(C2=NNC(c3cccs3)=Nc3ccc(OCC)cc32)cc1 17.8 µM [quencher, side channel, single point]
CC(=O)OCC(=O)[C@@]12OC(C)(C)OC1CC1C3CC(F)C4=CC(=O)C=C[C@@]4(C)[C@@]3(F)C(O)C[C@]12C (stereo partly specified) 31.6 µM [fluorescent, side channel, single point]
Cc1ccc(C#N)c(SCc2cc3c(cc2Cl)OCO3)n1 31.6 µM [inhibitor, single point]
Cc1cccc(CCNCc2c(C(=O)O)c(C)n(-c3ccccc3)c2C)c1 31.6 µM [fluorescent, side channel, partial curve]
O=Cc1cc(N=Nc2ccccc2Cl)ccc1O 10 µM [quencher, side channel, partial curve]
NS(=O)(=O)c1ccc(NC2=CC(=O)C(=O)c3ccccc32)cc1 39.8 µM [quencher, side channel, single point]
CCC(c1nnc(SCC(=O)Nc2ccc(Cl)cc2C(F)(F)F)n1C1CCCCC1)N(C)C (stereo unspecified) 14.1 µM [fluorescent, side channel, partial curve]
O=C(c1ccc2c(c1)OCO2)N(c1ccccc1)C1C=CS(=O)(=O)C1 (stereo unspecified) 3.16 µM [inhibitor, full curve, poor fit]
COc1ccccc1-c1cnn2c(NC3CCCC3)cc(C)nc12 31.6 µM [quencher, side channel, single point]
CC(Oc1ccc(Cl)cc1)C(=O)Nc1ccc(S(=O)(=O)Nc2nccs2)cc1 (stereo unspecified) 31.6 µM [quencher, side channel, single point]
CC(C)C1Nc2ccc(S(N)(=O)=O)cc2C2C=CCC21 (stereo unspecified) 28.2 µM [quencher, side channel, single point]
Cc1cc(=O)oc2c3c(cc(OCC(=O)NCc4cccnc4)c12)OC(C)(C)CC3 31.6 µM [fluorescent, side channel, single point]
O=c1oc2ccccc2c2c1C1O[C@](c3ccsc3)(Cc3c1ccc1ccccc31)O2 2.82 µM [quencher, side channel, partial curve]
COc1ccccc1C1C(C#N)=C(N)Oc2c1c(-c1ccccc1)nn2-c1ccccc1 (stereo unspecified) 15.8 µM [quencher, side channel, partial curve]
CCc1cc2c(=O)c(-c3ccc4c(c3)OCCO4)coc2c(CN2CCCCC2C)c1O (stereo unspecified) 35.5 µM [quencher, side channel, single point]
CN1CCN(c2nnc(-c3cccs3)c3ccccc23)CC1 39.8 µM [inhibitor, single point]
CCOC(=O)N/N=C/c1cn(CCCOc2ccccc2)c2ccccc12 2.24 µM [quencher, side channel, partial curve]
C=C1CCC[C@]2(C)C[C@H]3OC(=O)C(CN(Cc4ccc(OC)c(OC)c4)CC(C)O)[C@H]3CC12 (stereo partly specified) 25.1 µM [inhibitor, partial curve]
O=C(NNC(=S)Nc1ccc(Br)cc1)c1ccc(N2CCOCC2)c([N+](=O)[O-])c1 35.5 µM [quencher, side channel, single point]
CC(=O)Nc1ccc(-c2csc(NNC(=O)c3ccccc3)n2)cc1 25.1 µM [quencher, side channel, single point]
Brc1ccc(C2=Nn3c(nnc3-c3n[nH]c4c3CCC4)SC2)cc1 7.94 µM [inhibitor, partial curve]
Cc1ccc(N(CC(O)Cn2c3ccccc3c3ccccc32)S(C)(=O)=O)cc1 (stereo unspecified) 17.8 µM [quencher, side channel, partial curve]
CCN(CC)c1ccc(C2C3CCCCC3(O)CCN2CC(=O)Nc2ccccc2)cc1 (stereo unspecified) 39.8 µM [inhibitor, partial curve, poor fit]
O=C(Nc1ccc2nc(-c3ccco3)c(-c3ccco3)nc2c1)NC1CC1 11.2 µM [quencher, side channel, partial curve]
O=C(Nc1ccccc1C(=O)O)c1cccc(NC(=O)c2ccccc2Br)c1 15.8 µM [quencher, side channel, partial curve]
O=C(Nc1cccc(S(=O)(=O)C(F)F)c1)c1ccc(S(=O)(=O)N2CCOCC2)cc1 25.1 µM [quencher, side channel, single point]
CC(Oc1ccc(Cl)cc1)C(=O)Nc1sccc1C(N)=O (stereo unspecified) 11.2 µM [quencher, side channel, partial curve]
Oc1ccc(-c2n[nH]c(C(F)(F)F)c2-c2ccccc2)c(O)c1 28.2 µM [quencher, side channel, partial curve]
N#C/C(=N\Nc1cccc(Cl)c1)C(=O)c1ccccc1 22.4 µM [quencher, side channel, partial curve]
Cc1cc(C)c(OCC(O)CN2CCN(c3ccccn3)CC2)c(C)c1 (stereo unspecified) 39.8 µM [fluorescent, side channel, single point]
NNC(=O)c1cc(C23CC4CC(CC(C4)C2)C3)[nH]n1 14.1 µM [fluorescent, side channel, partial curve]
CCC(=O)Nc1ccc(C(=O)CSc2nc3ccccc3cc2CC)cc1 11.2 µM [quencher, side channel, partial curve]
CC(=O)Nc1cccc(-c2csc(Nc3ccc(C)cn3)n2)c1 14.1 µM [quencher, side channel, partial curve]
c1ccc(-c2nc(NCc3ccco3)c3oc4ccccc4c3n2)cc1 12.6 µM [quencher, side channel, partial curve]
CC1=NN(c2nc(-c3ccc(C)cc3)cs2)C(=O)C1N=Nc1cccc(C)c1 (stereo unspecified) 35.5 µM [quencher, side channel, single point]
CCS(=O)(=O)c1ccc(N=Nc2ccc(O)c3ncccc23)c(OC)c1 15.8 µM [quencher, side channel, partial curve]
Cc1[nH]nc(-c2ccc(O)cc2O)c1Oc1ccccc1 20 µM [quencher, side channel, partial curve]
CCOc1ccc(-c2csc(/C(C#N)=C\c3ccc(O)c([N+](=O)[O-])c3)n2)cc1 5.01 µM [quencher, side channel, partial curve]
CCc1cccc(C)c1N(C(=O)Cn1c(=O)[nH]c2ccccc21)C(C)COC (stereo unspecified) 0.891 µM [inhibitor, full curve]
COc1ccc(Cn2c(=O)[nH]c3cc(C(=O)NCCc4ccc(S(N)(=O)=O)cc4)ccc3c2=O)cc1 20 µM [inhibitor, partial curve]

FP activity change, negative = inhibition, inactive:
Cc1ccc(C)c(NNC(N)=S)c1 -1.1%
CCCCc1cc(=O)oc2cc(OCC(=O)N(CC)CC)c(Cl)cc12 -5.07%
O=C(Nc1ccc(F)cc1)c1cc2ccccc2o1 44.4%
COc1ccc2c(c1)C(=O)[C@H](OC(=O)NCc1ccco1)[C@@H](c1ccc(OC)c(Br)c1)O2 3.61%
Cc1ccc(Cl)c(OCCCN(C)Cc2ccccc2)c1 -11.1%
CCC1C2CN(C(C)=O)CC=C2C(C#N)=C(N)C1(C#N)C#N (stereo unspecified) 7.96%
